# Results from PubChem BioAssay AID504845 (National Center for Advancing Translational Sciences (NCATS), 2011).
# Hit rate of the full screen: of about 390,000 compounds, about 150 (0.038%) were called active. The shares of active, inactive and inconclusive entries below differ from those in the screen. The call rests on the fitted dose curve; in most records, active means well fitted inhibition curve with a large enough effect; inconclusive means small, poorly fitted or top-dose-only effect; inactive means no such curve, though single readings can be large or run the other way. Where the call is inconclusive, the potency comes from a doubtful curve fit.
# Target: Regulator of G-protein signaling 4 (Homo sapiens) (UniProt P49798)
# Sequence of UniProt P49798 (P49798 whole entry, looked up): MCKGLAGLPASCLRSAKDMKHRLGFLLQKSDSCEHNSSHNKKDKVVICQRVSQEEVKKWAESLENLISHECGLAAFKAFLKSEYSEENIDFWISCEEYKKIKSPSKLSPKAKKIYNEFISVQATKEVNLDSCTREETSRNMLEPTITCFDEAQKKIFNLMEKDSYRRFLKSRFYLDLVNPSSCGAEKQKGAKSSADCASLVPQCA
# Experiment: Inhibitors of Regulator of G Protein Signaling (RGS) 4: qHTS; further: nearly all actives have a fitted effect of over 75% in size
# Settings: Transcreener GDP fluorescence polarization, RGS4-accelerated GTP hydrolysis; series mostly up to 114 µM; activity change, negative = inhibition: at the top concentration
# Method in brief: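 MLSMR compounds (23 nl, pin-transferred) preincubated 10 min at room temperature with a 500nM (2x) first reagent, then RGS4 at 900nM (2x) plus Transcreener GDP mix added; fluorescence polarization (620/688 nm) read before and after 90 min at 30 °C.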
# On the % scale 0 is the no-effect control and ±100 the full control effect; potency means the concentration at half of the fitted maximal effect; tags describe the fitted curve by direction and shape.
Structure (SMILES),"activity change, negative = inhibition",Potency
COc1ccc(CC(=O)Nc2sc3c(c2C(N)=O)CCCC3)cc1OC,inactive: 5.96%,
COc1ccc(Cl)cc1NC(=O)Cn1cc(C(=O)c2ccncc2)c(=O)c2cc(C)ccc21,inactive: 4.03%,
COc1cc(C(=O)NNC(=S)Nc2ccc(S(N)(=O)=O)cc2)cc(OC)c1OC,,"inconclusive: 89.1 µM [inhibitor, partial curve, poor fit]"
Cc1ccc(CNC(=O)CSc2c3c(nc4cc(Cl)ccc24)CCCC3)o1,,"inconclusive: 79.4 µM [inhibitor, partial curve, poor fit]"
COc1ccc(C2(C(=O)Nc3ccc(S(N)(=O)=O)cc3)CCCC2)cc1,,"inconclusive: 50.1 µM [inhibitor, partial curve, poor fit]"
Oc1ccccc1C(=S)N1CCN(c2cccc(Cl)c2)CC1,,"inconclusive: 100 µM [inhibitor, single point]"
O=C(Nc1ccccc1Cl)/C(Cl)=C(\Cl)S(=O)c1ccccc1 (stereo unspecified),,"inconclusive: 56.2 µM [inhibitor, partial curve, poor fit]"
O=C(CCc1ccccc1)Nc1ccc2c(c1)C(=O)OC2,,"inconclusive: 89.1 µM [inhibitor, single point]"
CCc1ccc(/C=C/C(=O)c2cc(Br)ccc(=O)c2O)cc1,,"inconclusive: 79.4 µM [inhibitor, partial curve, poor fit]"
CN(C)c1ccc2c(c1)C(=NO)c1ccccc1-2,,"inconclusive: 44.7 µM [inhibitor, partial curve, poor fit]"
CCCS(=O)(=O)c1ncc(Cl)c(C(=O)Nc2scc(-c3ccccc3)c2C(=O)OCC)n1,,"inconclusive: 39.8 µM [inhibitor, partial curve, poor fit]"
O=C(Nc1ccc2c(c1)Cc1cc([N+](=O)[O-])ccc1-2)C(F)(F)F,inactive: 5.02%,
CCn1c(O)c(/C=C2\C=Nc3ccccc32)sc1=Nc1ccccc1,inactive: 12.2%,
COc1cccc(-c2cc(C(=O)Nc3cc(OC)c(OC)c(OC)c3)on2)c1,inactive: 19.1%,
S=C1NCCOCCNC(=S)NCCOCCOCCOCCN1,,"inconclusive: 89.1 µM [inhibitor, single point]"
COc1ccc(/C=N/NC(=O)c2ccccc2O)cc1Cn1cc(Cl)cn1,,"inconclusive: 100 µM [inhibitor, single point]"
Cc1ccc(S(=O)(=O)SCCCSS(=O)(=O)c2ccc(C)cc2)cc1,,"inconclusive: 20 µM [inhibitor, full curve, poor fit]"
O=C1CC(c2ccc(F)cc2)c2cc3c(cc2N1)CCC3 (stereo unspecified),inactive: -2.38%,
Cc1ccccc1N(C(=O)c1csnn1)C(C(=O)NC(C)(C)C)c1cccs1 (stereo unspecified),,"inconclusive: 17.8 µM [inhibitor, full curve, poor fit]"
COc1ccccc1NC(=O)c1c(O)c2ccccc2[nH]c1=O,inactive: 2.9%,
COc1ccc(CCN(CC(=O)NC(C)(C)C)C(=O)Cn2nnc(-c3ccc(C)o3)n2)cc1OC,,"inconclusive: 79.4 µM [inhibitor, partial curve, poor fit]"
Cc1nc2ncccn2c1-c1csc(Nc2cccc(C(=O)O)c2)n1,,"inconclusive: 56.2 µM [inhibitor, partial curve, poor fit]"

Structure (SMILES),"activity change, negative = inhibition",Potency
S=c1[nH]cnc2scc(-c3ccccc3)c12,,"inconclusive: 35.5 µM [inhibitor, partial curve, poor fit]"
CCOC(=O)N1CCC(Nc2cccc(SC)c2)CC1,inactive: -0.475%,
COC(=O)Nc1sc2c(c1C(N)=O)CCCCCC2,,"inconclusive: 50.1 µM [inhibitor, partial curve, poor fit]"
COc1ccc(Cl)cc1-c1nc(SCC(=O)NC2CC2)n[nH]1,,"inconclusive: 44.7 µM [inhibitor, partial curve, poor fit]"
COc1ccc(NC(=O)c2ccc3c(c2)CCN3S(=O)(=O)c2ccc(C)cc2)cc1Cl,inactive: -10.9%,
Clc1nssc1=Nc1ccc(Br)cc1,,"inconclusive: 17.8 µM [inhibitor, full curve, poor fit]"
COC(=O)Cc1csc(NC(=O)CSc2nnc3ccccn23)n1,,"inconclusive: 17.8 µM [inhibitor, full curve, poor fit]"
Cc1c(Cl)cccc1-c1ccc(C(=O)Nc2ccc3oc(-c4cccnc4)nc3c2)o1,,"inconclusive: 100 µM [inhibitor, partial curve, poor fit]"
O=C1/C(=C/c2cccc(F)c2)SC(=S)N1NS(=O)(=O)c1ccccc1,,"inconclusive: 79.4 µM [inhibitor, single point]"
O=C1NN(c2ccccc2)C(=O)/C1=C\c1ccccc1,,"inconclusive: 89.1 µM [inhibitor, single point]"
O=C(N/N=C\c1cn[nH]c1-c1ccccc1)c1ccc([N+](=O)[O-])cc1,inactive: 3.33%,
Cc1cccc(Nc2n[nH]c(=S)s2)c1C,,"inconclusive: 50.1 µM [inhibitor, partial curve, poor fit]"
C=C1CC(Cn2cc(Br)c(=O)[nH]c2=O)(c2ccc(-c3ccccc3)cc2)OC1=O (stereo unspecified),,"inconclusive: 20 µM [inhibitor, full curve, poor fit]"
CC(=O)Nc1ccc(S(=O)(=O)Nc2cccc(-n3cnnn3)c2)cc1,,"inconclusive: 89.1 µM [inhibitor, single point]"
COc1ccc(CN2C(=O)C(C)Nc3ncnc(N4CCN(c5ccccn5)CC4)c32)cc1 (stereo unspecified),inactive: 13.7%,
N#CC(C#N)=C1C=CC=CN1/C(=C\c1ccco1)C(=O)c1ccc(Cl)cc1,inactive: -36.6%,
CCCCCOc1ccc(C(=O)CCN2CCOCC2)cc1,,"inconclusive: 31.6 µM [inhibitor, full curve, poor fit]"
O=C(NN1CCOCC1)c1ccc(Cl)c([N+](=O)[O-])c1,inactive: -7.88%,
CC1(C)CC(=O)c2sc(NS(=O)(=O)Cc3ccccc3)nc2C1,,"inconclusive: 100 µM [inhibitor, single point]"
COc1ccc(C(=S)N2CCN(c3ccccc3C)CC2)cc1OC,,"inconclusive: 17.8 µM [inhibitor, full curve, poor fit]"
COc1ccc(N2CCN(CCC(=O)c3ccc4ccccc4c3)CC2)cc1,,"inconclusive: 10 µM [inhibitor, full curve, poor fit]"
Cc1ccccc1Nc1nc(CSc2nnnn2-c2ccccc2)cs1,,"inconclusive: 17.8 µM [inhibitor, full curve, poor fit]"

Structure (SMILES),"activity change, negative = inhibition",Potency
FC(F)(F)c1ccccc1NC(=S)Nn1cnnc1,,"inconclusive: 20 µM [inhibitor, full curve, poor fit]"
CC(C)COc1cccc(C(=O)Nc2cc(S(=O)(=O)N3CCOCC3)ccc2N2CCCC2)c1,,"inconclusive: 79.4 µM [inhibitor, single point]"
COc1ccc(-c2cc3cccc(OC)c3oc2=O)cc1,inactive: 21.1%,
CC1CCC(=O)N(CCOc2ccccc2)CC1 (stereo unspecified),,"inconclusive: 28.2 µM [inhibitor, full curve, poor fit]"
CC1CCC2C(C1)Nc1c(C(=O)O)cccc1C2(C)C (stereo unspecified),,"inconclusive: 25.1 µM [inhibitor, full curve, poor fit]"
C/C=C/C=C/C(=O)N1CC2(CC(c3cccc(NC(=O)/C=C/C)c3)=NO2)C[C@@H]1C(N)=O (stereo partly specified),,"inconclusive: 28.2 µM [inhibitor, full curve, poor fit]"
COc1ccc(N2CCN(C(=S)Nc3ccc(S(N)(=O)=O)cc3)CC2)cc1,,"inconclusive: 17.8 µM [inhibitor, full curve, poor fit]"
Cc1cc2nc3c(=O)n(Cc4ccccc4)c(=O)[nH]c3nc2cc1N,,"inconclusive: 44.7 µM [inhibitor, partial curve, poor fit]"
O=C(Nc1ccc(Cl)cc1)Nc1ccccc1CC[N+](=O)[O-],,"inconclusive: 17.8 µM [inhibitor, full curve, poor fit]"
Cc1ccc(C(=O)C[n+]2cccc3cc(C)ccc32)cc1,,"inconclusive: 70.8 µM [inhibitor, partial curve, poor fit]"
CCc1ccc(/C=N/n2c(COc3ccccc3)n[nH]c2=S)cc1,,"inconclusive: 79.4 µM [inhibitor, partial curve, poor fit]"
Cc1ccc(OC(=O)c2ccc3nc(C)sc3c2)cc1,,"inconclusive: 79.4 µM [inhibitor, partial curve, poor fit]"
CCOc1ccc(C(=O)N/N=C/c2cc([N+](=O)[O-])cs2)cc1,,"inconclusive: 17.8 µM [inhibitor, full curve, poor fit]"
N#Cc1c2ccc(O)cc2n2ccccc12,inactive: -32.1%,
Oc1ccccc1Nc1nc(NCc2ccccc2)c2ccccc2n1,inactive: -13.7%,
Cc1cccc(N2C(=O)CC(Sc3nc(C)c4c(n3)CCCC4)C2=O)c1 (stereo unspecified),inactive: 24.8%,
COC(=O)C1=C[C@@H](C(=O)OC)[C@@H]2C3=C(C(=O)[C@]2(CC(C)C)NC(=O)c2ccccc2)[C@H](C)n2c(=O)n(-c4ccccc4)c(=O)n2[C@@H]3C1,,"inconclusive: 79.4 µM [inhibitor, single point]"
CCCCCNC1=CC(=O)CC(c2ccccc2)C1 (stereo unspecified),,"inconclusive: 89.1 µM [inhibitor, single point]"
O=c1oc2ccccc2c(Nc2ccc3ncccc3c2)c1[N+](=O)[O-],,"inconclusive: 89.1 µM [inhibitor, single point]"
CCCCN(C)c1nc(-c2ccco2)c2c(c1C#N)CC(C)(C)OC2,,"inconclusive: 20 µM [inhibitor, full curve, poor fit]"
CC(=Nc1ccc(O)cc1)c1sc2ccccc2c1O,inactive: 1.86%,
CCOC(=O)c1sc(NC(=O)C2=COCCO2)c(C#N)c1C,,"inconclusive: 35.5 µM [inhibitor, partial curve, poor fit]"
